From PubChem BioAssay AID2100 (National Center for Advancing Translational Sciences (NCATS), 2009)
The campaign covered roughly 300,000 compounds. About 1,200 (0.4%) were called active. This list was built around the results that the source calls inconclusive (neither active nor inactive); the mix of calls is not that of the screen. The call rests on the fitted dose curve; in most records, active means well fitted inhibition curve with a large enough effect; inconclusive means small, poorly fitted or top-dose-only effect, or another doubt; inactive means no such curve, though single readings can be large or run the other way. A potency beside an inconclusive call is a rough fit, not a confirmed value.

These molecules were tested against Lysosomal alpha-glucosidase (Homo sapiens) (UniProt P10253) (assay: qHTS Assay for Inhibitors and Activators of Human alpha-Glucosidase Cleavage of Glycogen). Conditions: recombinant GAA, glycogen substrate, Amplex Red glucose oxidase fluorescence; series mostly up to 76.4 µM.
In short: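 Recombinant enzyme (4 nM final) with compounds titrated up to 77 uM and bovine liver glycogen (30 ug) in citrate pH 5.0, 0.01% Tween-20, 37 C 40 min. Released glucose detected by Amplex Red/glucose oxidase (Ex 573/Em 610); AC50 from Hill fits.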
Potency means the concentration at half of the fitted maximal effect.

SMILES | Potency
Oc1ccccc1N1CCN(c2nnnn2-c2ccccc2)CC1 | inconclusive: 14.1 µM [inhibitor, partial curve]
Cc1ccc(-n2nc(CO)c(C(=O)NCc3cccnc3)n2)cc1 | inactive
CCOc1ccccc1NC(=O)NNS(=O)(=O)c1cc(OC)ccc1OC | inconclusive: 7.08 µM [inhibitor, single point]
COc1cc(/C=N/NC(=O)c2c(-c3ccccc3)noc2C)ccc1O | inconclusive: 19.8 µM [inhibitor, single point]
COc1cc(/C=N/NS(=O)(=O)c2ccc(C(C)(C)C)cc2)cc([N+](=O)[O-])c1O | inconclusive: 44.7 µM [inhibitor, partial curve]
Cn1c2ccccc2c2nnc(NN)nc21 | inconclusive: 50.1 µM [activator, single point]
CCOC(=O)COc1ccccc1C1C(C(=O)OC)=C(C)NC2=C1C(=O)c1ccccc12 (stereo unspecified) | inconclusive: 25.1 µM [inhibitor, partial curve]
Cc1nnc(N/N=C/c2ccc(-c3ccc(Br)cc3)o2)n1N | inconclusive: 12.6 µM [inhibitor, partial curve]
COC(=O)c1cc(OC)cc(O)c1C(=O)c1c(O)cc(C)cc1O | inconclusive: 35.5 µM [inhibitor, single point]
CCOc1cc(NC(=S)Nc2ccccc2)c(OCC)cc1NC(=O)c1ccccc1 | inconclusive: 20 µM [inhibitor, partial curve]
O=C(CN1CC[n+]2c(-c3cccs3)csc21)c1ccc(Br)cc1 | inconclusive: 31.6 µM [inhibitor, single point]
CCOC(=O)N1CCN(c2c(N3CCN(c4ccc(OC)cc4)CC3)c(=O)c2=O)CC1 | inconclusive: 14.1 µM [activator, partial curve]
COc1cc(CN2CCCC(C(=O)c3ccc4c5c(cccc35)CC4)C2)cc(OC)c1O (stereo unspecified) | inconclusive: 8.91 µM [inhibitor, partial curve]
CCCN1CCN(C(=O)CCc2nnc3ccc(N4CCN(c5cccc(OC)c5)CC4)nn23)CC1 | inconclusive: 3.98 µM [inhibitor, partial curve]
O=C(NNc1ccc(F)cc1)c1c(F)cccc1Cl | inconclusive: 7.08 µM [inhibitor, partial curve]
Cc1ccc(-c2nc3cnccn3c2Nc2ccc3c(c2)OCO3)cc1 | inconclusive: 17.6 µM [inhibitor, partial curve]
COc1cc(/C=C2/C(=O)CNC2=O)ccc1O | inconclusive: 17.8 µM [inhibitor, partial curve]
Cn1cnnc1SCC(=O)c1ccc(O)c(O)c1 | active: 6.26 µM
COc1ccccc1C(O)(C(=O)NNc1ccccc1C)c1ccccc1OC | inconclusive: 17.8 µM [inhibitor, partial curve]
O=C(Nc1ccc(CSc2ccccc2)cc1)c1ccccc1 | inactive
COc1ccc(NC(=O)CSc2nc(C)c3c(c2C#N)CCCC3)cc1 | inactive
CNC(=S)NNc1nc(N2CCOCC2)nc(N2CCOCC2)n1 | active: 7.88 µM
COc1cc2c(cc1NC(=S)Nc1cccc3ccccc13)oc1ccccc12 | inconclusive: 12.5 µM [inhibitor, partial curve]
COc1ccc(C(=O)COC(=O)C(Cc2c[nH]c3ccccc23)NC(=O)c2ccc(C(C)(C)C)cc2)cc1 (stereo unspecified) | inactive

SMILES | Potency
COc1ccc(Nc2nnc(SCc3cc([N+](=O)[O-])cc4c3OCOC4)s2)cc1 | inconclusive: 39.5 µM [inhibitor, single point]
COc1ccc(O)c(-c2cc(-c3cccs3)[nH]n2)c1 | active: 39.8 µM
CCN(CC)S(=O)(=O)c1ccc(N2CCCC2)c(NS(=O)(=O)c2cccs2)c1 | inconclusive: 12.6 µM [inhibitor, partial curve, poor fit]
COC(=O)CN(c1ccc(C)cc1)S(=O)(=O)c1ccc2c(c1)n(C)c(=O)c(=O)n2C | inactive
COC(=O)CC1=NN(c2ccccc2)C(=O)C1 | inconclusive: 39.5 µM [inhibitor, single point]
O=C(Nc1ccc(Cl)cc1)Nc1ccccc1C(=O)O | inactive
CCOc1ccc(NC(=S)Nc2cc(C)[nH]n2)cc1 | inconclusive: 31.6 µM [inhibitor, partial curve]
C/C(=N\Nc1ccc([N+](=O)[O-])cc1)c1ccc(N)cc1 | inconclusive: 31.6 µM [inhibitor, partial curve]
[O-]C1=N/[N+](=C/c2ccc(Cl)c(Cl)c2)CC1 | inconclusive: 28.2 µM [inhibitor, single point]
CC(C)(C)NC(=O)C(c1ccncc1)N(Cc1cccs1)C(=O)Cn1nnc(-c2cccs2)n1 (stereo unspecified) | active: 28 µM
CCC(=O)NNc1nc2c(C)cc(C)cc2s1 | inconclusive: 4.43 µM [inhibitor, full curve]
CC(=O)Nc1ccc(N2CCCC2)cc1 | inconclusive: 39.5 µM [inhibitor, single point]
O=C(Cn1ncc2ccsc2c1=O)N1CCN(c2ccccc2F)CC1 | inactive
CCCn1c(=NC(=O)c2cc3ccccc3o2)c(C(=O)OCC)cc2c(=O)n3ccccc3nc21 | inconclusive: 11.2 µM [inhibitor, partial curve]
COc1cc(C2c3c(-c4ccccc4O)n[nH]c3C(=O)N2Cc2ccco2)ccc1OCC(C)C (stereo unspecified) | inactive
O=C1NC(=O)/C(=C\c2ccc(O)cc2O)S1 | active: 2.82 µM
CN=C1C([N+](=O)[O-])=CC=C2C1=NC1(CCCCC1)N2O | inactive
CNC(=S)NNC(=O)c1sc(-c2cc(C)on2)nc1C | inconclusive: 20 µM [inhibitor, partial curve]
Fc1ccc(N/N=C/c2ccncc2)c(F)c1 | inconclusive: 22.4 µM [inhibitor, partial curve]
CC(c1ccon1)N(C)C(=O)CCc1nnc(C2(c3ccc(Cl)cc3)CCC2)o1 (stereo unspecified) | inactive
COc1ccc(/C=N/Nc2ccc(C(=O)O)cc2)c(OC)c1OC | inconclusive: 31.6 µM [inhibitor, partial curve]
CCOC(=O)c1cnc2nc(NCc3cccc(Br)c3)[nH]n2c1=O | inactive
CCOc1ccc(NC(=S)NNC(=O)c2cc(Br)ccc2Cl)cc1 | inconclusive: 50.1 µM [inhibitor, single point]
CCOc1ccc(-c2nc(=S)[nH][nH]2)cc1 | inconclusive: 19.8 µM [inhibitor, single point]

SMILES | Potency
CSc1nc(Cl)cc(Nc2ccc(O)cc2)n1 | inconclusive: 20 µM [inhibitor, partial curve]
CC(=O)Nc1sc(N/N=C/c2ccccc2)nc1-c1ccc(C)cc1 | inconclusive: 35.5 µM [inhibitor, single point]
Cc1ccc(Nc2c(-c3ccsc3)nc3c(C)cccn23)cc1 | active: 11.2 µM
Cc1ccc(N/N=C(\Cc2nc3ccccc3[nH]2)c2ccccc2)cc1 | inconclusive: 35.5 µM [inhibitor, single point]
Cc1c(/C=N/Nc2ccc(F)cc2)c(O)n(C)c(=O)c1C#N | inconclusive: 31.4 µM [inhibitor, single point]
O=C(NNC(=S)NCc1ccco1)c1cccs1 | inconclusive: 10 µM [inhibitor, partial curve, poor fit]
CN1c2ccsc2/C(=N/Nc2ccccc2)CS1(=O)=O | inconclusive: 17.8 µM [inhibitor, partial curve]
COc1cccc(C2Nc3ccccc3C(=O)N2O)c1O (stereo unspecified) | inconclusive: 10 µM [inhibitor, partial curve]
CCOc1cc(CNc2ccc3c(c2)CCC3)ccc1O | inactive
CN(C)N1C(N)=C(C#N)C(c2ccc(F)cc2)C2=C1CCCC2=O (stereo unspecified) | inconclusive: 25.1 µM [inhibitor, partial curve]
CCOc1cc(C(c2c(C)[nH][nH]c2=O)c2c(C)[nH][nH]c2=O)ccc1OC(=O)c1cccc([N+](=O)[O-])c1 | inconclusive: 25.1 µM [inhibitor, partial curve]
O=C(CCNC(=O)c1ccc([N+](=O)[O-])cc1)Nc1ccccc1N1CCCC1 | inconclusive: 39.8 µM [inhibitor, partial curve]
C/C(=N\Nc1cc(N2CCOCC2)ncn1)c1ccc(O)cc1 | inconclusive: 44.7 µM [inhibitor, partial curve]
O=S(=O)(Nc1ccc(O)cc1)c1cccc2cccnc12 | inconclusive: 9.92 µM [inhibitor, partial curve]
COc1cc(/C=N/NC(=O)c2nnn(-c3nonc3N)c2C(C)C)ccc1O | inconclusive: 31.6 µM [inhibitor, partial curve]
CCOC(=O)C1=C(C)NC(=O)C(C#N)C1c1ccncc1 (stereo unspecified) | inconclusive: 14 µM [inhibitor, partial curve]
CCN1C(=O)c2ccccc2Sc2ccc(NC(=O)N3CCN(c4cc(C)ccc4C)CC3)cc21 | inactive
Nc1cc(Br)c(N)c(Br)c1 | active: 31.6 µM
CC(=O)c1cc2c(O)c(O)ccc2o1 | active: 31.4 µM
COc1ccc(O)c(C(=O)c2cc(C#N)c(=O)n(-c3c(C)n(C)n(-c4ccccc4)c3=O)c2)c1 | inconclusive: 22.4 µM [inhibitor, partial curve]
CCCOc1ccc(C2NC(=O)CCC2[N+](=O)[O-])cc1 (stereo unspecified) | inactive
COc1ccccc1Nc1n[nH]c(=S)s1 | inconclusive: 39.8 µM [inhibitor, single point]
Cc1nn(-c2ccccc2)c(N2CCCC2)c1/C=N/O | inconclusive: 15.7 µM [inhibitor, partial curve]
